Data: PubChem BioAssay AID1460 (National Center for Advancing Translational Sciences (NCATS), 2008)
Where “and” joins values, the source holds several entries; their conditions need not be identical. Equal entries are not always repeated. Screen size: about 270,000 compounds; about 5,800 (2.1%) were called active. Inconclusive means that the source gave no clear call. Such entries were picked first, then a sample of the others. Calls come from the whole dose curve; as a rule, active = well fitted inhibition curve with a large enough effect; inconclusive = small, poorly fitted or top-dose-only effect; inactive = flat fitted curve, though single readings scatter. A potency beside an inconclusive call is a rough fit, not a confirmed value.

Biological target: Microtubule-associated protein tau (Homo sapiens) (UniProt P10636)
Sequence of UniProt P10636 (P10636 whole entry, looked up): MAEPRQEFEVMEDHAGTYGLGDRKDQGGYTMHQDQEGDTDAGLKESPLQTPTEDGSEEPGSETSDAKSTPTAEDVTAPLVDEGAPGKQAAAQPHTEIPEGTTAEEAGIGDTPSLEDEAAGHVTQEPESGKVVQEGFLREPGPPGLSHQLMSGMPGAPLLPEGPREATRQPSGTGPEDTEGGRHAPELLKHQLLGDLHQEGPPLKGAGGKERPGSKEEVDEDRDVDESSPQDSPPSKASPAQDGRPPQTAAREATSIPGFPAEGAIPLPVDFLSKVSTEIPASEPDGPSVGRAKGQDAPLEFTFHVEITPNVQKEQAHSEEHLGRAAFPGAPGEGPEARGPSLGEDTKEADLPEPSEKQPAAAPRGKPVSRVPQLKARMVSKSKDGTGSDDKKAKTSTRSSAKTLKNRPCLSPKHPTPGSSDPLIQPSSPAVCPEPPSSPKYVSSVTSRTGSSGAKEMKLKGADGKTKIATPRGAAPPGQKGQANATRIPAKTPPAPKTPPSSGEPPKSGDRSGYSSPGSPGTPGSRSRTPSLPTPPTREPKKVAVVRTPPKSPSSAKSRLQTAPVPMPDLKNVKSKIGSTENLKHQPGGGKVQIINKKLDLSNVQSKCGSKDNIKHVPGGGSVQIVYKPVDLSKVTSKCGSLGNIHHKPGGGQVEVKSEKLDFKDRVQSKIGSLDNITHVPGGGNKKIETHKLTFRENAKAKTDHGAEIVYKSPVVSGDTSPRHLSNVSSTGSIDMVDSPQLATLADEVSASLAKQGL
Experiment: qHTS for Inhibitors of Tau Fibril Formation, Thioflavin T Binding; note: nearly all actives have a fitted effect of over 55% in size
Conditions: recombinant tau K18 P301L (four-repeat tau fragment), heparin-induced fibrillization, ThT fluorescence; series mostly up to 57.4 µM
Summary of the method: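 Tau K18 P301L fragment (15 uM unlabeled plus 0.24 uM Alexa 594-labeled) in 100 mM sodium acetate pH 7 with compound, fibrillization induced by 20 uM heparin for 6 hr at 37 C. Thioflavin T (30 uM) added, fluorescence read after 1 hr (ex 450, em 510 nm).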
Potency is the fitted concentration of half-maximal effect; tags give direction and shape of the fitted curve.

| SMILES | Potency |
| --- | --- |
| CCOc1ccc(Cl)cc1S(=O)(=O)N1CCN(c2ccc(C)c(C)c2)CC1 | inconclusive: 31.6 µM [inhibitor, partial curve, poor fit] |
| Cc1cc(Br)ccc1NCc1ccccn1 | inconclusive: 12.6 µM [inhibitor, partial curve] |
| Cc1ccc2c(c1)c(CC(=O)Nc1ccc(C)c(F)c1)c(C(=O)O)n2C | inconclusive: 22.4 µM [inhibitor, single point] |
| CN(C)S(=O)(=O)c1cccc(-c2nn(-c3ccccc3)cc2/C=C2\SC(=S)N(CC(=O)O)C2=O)c1 | inconclusive: 20 µM [inhibitor, partial curve] |
| Cc1snc2sc(C(=O)c3ccc(Br)cc3)c(N)c12 | inconclusive: 1.78 µM [inhibitor, full curve] |
| O=C(O)CCC(=O)Nc1nc(-c2ccccc2)cs1 | inactive |
| Cc1cc(O)c2c(c1O)C(=O)C(O)=C(O)C2=O | active: 12.6 µM |
| COc1cccc2sc(N(CCCN(C)C)C(=O)C(c3ccccc3)c3ccccc3)nc12 | inconclusive: 28.2 µM [inhibitor, single point] |
| O=C(Cn1cnc2onc(-c3ccc(F)cc3)c2c1=O)Nc1ccc(F)c(Cl)c1 | inconclusive: 14.1 µM [activator, partial curve] |
| O=C(CN1c2ccccc2S(=O)(=O)c2ccccc21)Nc1ccccc1Cl | inactive |
| Cc1nc2ccc(NC(=O)N3CCN(c4ccccn4)CC3)cc2s1 | inconclusive: 6.31 µM [inhibitor, partial curve] |
| COc1ccccc1N(CC(=O)Nc1ccc2c(c1)OCO2)S(=O)(=O)c1ccc(C)cc1 | inconclusive: 14.1 µM [inhibitor, partial curve] |
| O=C(NCCSCc1ccc(Cl)cc1Cl)c1ccc(CN2CCOCC2)cc1 | inconclusive: 22.4 µM [inhibitor, single point] |
| CCOC(=O)c1c(/N=C/c2cc([N+](=O)[O-])ccc2O)sc(C)c1C | inconclusive: 39.8 µM [inhibitor, single point] |
| CCOc1ccccc1NC(=O)c1cc(C(=O)c2cc(Br)ccc2O)coc1=N | inconclusive: 15.8 µM [inhibitor, partial curve] |
| CCOC(=O)C(CSCC(=O)c1ccc(Cl)cc1Cl)NC(=O)OC(C)(C)C (stereo not drawn) | inconclusive: 22.4 µM [inhibitor, partial curve] |
| OCC(Cc1ccccc1)Nc1c2ccccc2nc2ccccc12 (stereo not drawn) | inconclusive: 39.8 µM [activator, single point] |
| COc1ccc2c(CC(=O)OCC(=O)Nc3ccc4c(c3)OCO4)coc2c1 | inconclusive: 1.58 µM [inhibitor, full curve] |
| O=C(NCCCN1CCN(c2ccc(F)cc2)CC1)c1cnn(-c2ccc(F)cc2)c1-n1cccc1 | inactive |
| CCOc1ccc(NC(=O)CN2CCN(CC(=O)c3ccc(OCC)cc3)CC2)cc1 | inactive |
| Cc1ccc2c(c1)N=C(c1ccc(F)cc1)CO2 | inconclusive: 2.24 µM [inhibitor, partial curve] |
| COC(=O)Oc1nsnc1N1CCOCC1 | inconclusive: 25.1 µM [inhibitor, single point] |
| COc1ccc(NC(=O)c2ccc3c(SCC(=O)O)c4c(nc3c2)CCCC4)c(OC)c1 | inconclusive: 17.8 µM [inhibitor, partial curve] and inconclusive: 22.4 µM [inhibitor, partial curve] |

| SMILES | Potency |
| --- | --- |
| O=C(CCN1C(=O)/C(=C/c2ccccc2Cl)SC1=S)NNC(=O)c1cccnc1 | inconclusive: 39.8 µM [inhibitor, single point] |
| Cc1ccc2c(C)nc(Nc3nc(CSc4nc5ccccc5[nH]4)cc(=O)[nH]3)nc2c1 | inconclusive: 8.91 µM [inhibitor, full curve] |
| COc1cc(/C=N/NC(=S)Nc2cccnc2)cc(OC)c1O | inconclusive: 31.6 µM [inhibitor, partial curve] |
| Cc1cc2cc(CNC(=O)c3ccc(S(=O)(=O)N4CCOCC4)cc3)ccc2n1C | inconclusive: 31.6 µM [inhibitor, single point] |
| Nc1c(C(=O)NCc2ccc(Cl)cc2)sc2nc3c(c(C(F)(F)F)c12)CCC3 | inconclusive: 14.1 µM [inhibitor, partial curve] |
| CCc1cccc(NS(=O)(=O)c2ccc(-n3cccn3)cc2)c1 | inactive |
| COc1ccc(-c2nnc(SCC(=O)Nc3cc(C)on3)o2)cc1 | inconclusive: 10 µM [inhibitor, partial curve] |
| CCOC(=O)/C(C#N)=C/c1ccc(-c2ccc(Br)cc2)o1 | inconclusive: 2.82 µM [inhibitor, partial curve, poor fit] |
| CCCCS(=O)(=O)CC(O)CSc1nc(-c2ccc(C)cc2)cc(-c2ccccc2)c1C#N (stereo not drawn) | inconclusive: 31.6 µM [inhibitor, partial curve] |
| C#C[C@]1(O)CC[C@H]2[C@@H]3CCc4cc(OC5CCCC5)ccc4[C@H]3CC[C@@]21C | inconclusive: 20 µM [inhibitor, partial curve] |
| CC1=C(c2ccc(C(C)C)cc2)S(=O)(=O)NC1=NCCCN1CCN(c2ccccc2F)CC1 | inactive |
| CCn1c(SCC(=O)N2CCN(c3ccccc3)CC2)nnc1-c1c[nH]c2ccccc12 | inconclusive: 25.1 µM [inhibitor, partial curve] |
| O=C(N/N=C/c1c[nH]c2ccc(Br)cc12)C1CC1 | inconclusive: 3.16 µM [inhibitor, partial curve] |
| Cc1ccc(CN2CCc3nc(Nc4ccc5c(c4)OCCO5)ncc3C2)cc1 | inconclusive: 14.1 µM [inhibitor, partial curve, poor fit] |
| CN(C)S(=O)(=O)Oc1cccc(C(=O)Nc2cccc(Cl)c2)c1 | inactive |
| Cc1ccc(C)c(N2CCN(C(=O)CCc3nnc4n(CC(C)C)c(=O)c5ccccc5n34)CC2)c1 | inconclusive: 12.6 µM [inhibitor, partial curve] |
| Cc1cc(CSc2ccccc2)ccc1NC(=O)c1ccc(CN2CCOCC2)cc1 | inconclusive: 1.58 µM [inhibitor, full curve, poor fit] |
| COc1ccc(CCNc2ccc(C(=O)O)cc2[N+](=O)[O-])cc1OC | inconclusive: 12.6 µM [inhibitor, partial curve] |
| CCOC(=O)c1c(C)oc2c1c(C=NCC1CCCO1)c(O)c1ccccc12 (stereo not drawn) | inconclusive: 22.4 µM [inhibitor, partial curve] |
| Cc1cccc(N/N=C/c2ccc(O)c(O)c2O)c1 | active: 10 µM |
| O=C(COc1ccc(/C=N/NC(=O)c2ccccc2)cc1)Nc1ccc([N+](=O)[O-])cc1 | inconclusive: 0.562 µM [inhibitor, full curve] |
| CSS(=O)(=O)c1cccc2cccnc12 | inconclusive: 5.62 µM [inhibitor, partial curve, poor fit] |
| CCOC(=O)c1ccc(NC(=O)CSc2nc(C)nc3c2c(=O)n(C)c(=O)n3C)cc1 | inconclusive: 17.8 µM [inhibitor, single point] |

| SMILES | Potency |
| --- | --- |
| O=C(CNC(=O)c1ccco1)OCc1ccc(Cl)cc1 | inactive |
| CCN(CC)c1ccc(/C=N/NC(=O)c2c[nH]c3ccccc23)cc1 | active: 5.01 µM |
| O=S(=O)(/N=C(/c1ccccc1)N1CCCCC1)c1ccccc1 | inactive |
| Cc1ccc(-n2c3c(cc(-c4nc(-c5ccc(Cl)cc5)cs4)c2=O)C(=O)CC(C)(C)C3)cc1C | inactive |
| COc1cc(NC(=O)c2cc3c(s2)-c2ccccc2OC3)cc(OC)c1OC | inconclusive: 3.55 µM [inhibitor, partial curve] |
| O=C(OCC(=O)N1CCc2ccccc21)c1cncc(Br)c1 | inconclusive: 7.94 µM [inhibitor, partial curve] |
| CCCN(CCC)C(=O)Cn1c(=O)n(-c2ccc(Cl)cc2)c(=O)c2c3c(sc21)CCCCC3 | inactive |
| Cc1ccc(-c2nn(-c3ccc(F)cc3)c3c2cnc2cc(F)c(F)cc23)cc1 | inactive |
| CCC(=O)N1CCc2cc(S(=O)(=O)NCCC(=O)Nc3cc(C)ccc3OC)ccc21 | inactive |
| COc1ccc(C(=O)/C=C/Nc2cccc(C)n2)cc1OC | inconclusive: 4.47 µM [inhibitor, full curve] |
| COc1ccccc1-c1cc2nc(C)c(CCC(=O)O)c(C)n2n1 | inconclusive: 31.6 µM [inhibitor, single point] |
| Cc1ccccc1N1CCN(Cc2c[nH]c3ccccc23)CC1 | inactive |
| COc1cccc(N2CCN(c3ncnc4c3[nH]c3ccccc34)CC2C)c1 (stereo not drawn) | inconclusive: 12.6 µM [inhibitor, partial curve] |
| S=C(Nc1ccc(Cl)c(Cl)c1)NC1CCN(Cc2ccccc2)CC1 | inactive |
| COc1ccc(-c2n[nH]c(=S)n2-c2cc(OC)ccc2OC)cc1 | inactive |
| COc1ccc(N2CCN(c3nc(=S)n(-c4ccccc4)c(C)c3C(C)=O)CC2)cc1 | active: 28.2 µM |
| CCN1CCN(c2ccc(NC(=O)c3ccc4c(c3)[nH]c(=O)n4Cc3ccc(OC)cc3)cc2)CC1 | inconclusive: 25.1 µM [inhibitor, partial curve] |
| NC(N)=N/N=C/c1ccc(Cl)cc1Cl | inconclusive: 3.16 µM [activator, single point] |
| Cc1[nH]c(=O)c(C#N)cc1-c1ccncc1 | inactive |
| O=C(O)c1csc(N/N=C/c2ccc(Br)cc2)n1 | inconclusive: 12.6 µM [inhibitor, partial curve] |
| O=C(NCCNCc1cccs1)c1ccccc1F | inactive |
| Cc1ccc(NC(=O)Cn2c(=O)c3ccccc3n3nncc23)cc1 | inactive |
